Data on 42 molecules can be found in PMC4336329 (PLoS ONE, 2015).

Out of some 310,000 compounds screened, about 14,000 (4.5%) showed an effect of 50% or more. Effects have a minus sign here. The list shows a part of the results.
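Also: peak tail current of the secondary pulse compared with the same well before compound.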

The assay deals with human ether-à-go-go-related gene (hERG) potassium channel (human, UniProt Q12809). Briefly: primary screen, population patch clamp on CHO cells stably expressing hERG.
Sequence of human ether-à-go-go-related gene (hERG) potassium channel (Q12809 whole entry, looked up): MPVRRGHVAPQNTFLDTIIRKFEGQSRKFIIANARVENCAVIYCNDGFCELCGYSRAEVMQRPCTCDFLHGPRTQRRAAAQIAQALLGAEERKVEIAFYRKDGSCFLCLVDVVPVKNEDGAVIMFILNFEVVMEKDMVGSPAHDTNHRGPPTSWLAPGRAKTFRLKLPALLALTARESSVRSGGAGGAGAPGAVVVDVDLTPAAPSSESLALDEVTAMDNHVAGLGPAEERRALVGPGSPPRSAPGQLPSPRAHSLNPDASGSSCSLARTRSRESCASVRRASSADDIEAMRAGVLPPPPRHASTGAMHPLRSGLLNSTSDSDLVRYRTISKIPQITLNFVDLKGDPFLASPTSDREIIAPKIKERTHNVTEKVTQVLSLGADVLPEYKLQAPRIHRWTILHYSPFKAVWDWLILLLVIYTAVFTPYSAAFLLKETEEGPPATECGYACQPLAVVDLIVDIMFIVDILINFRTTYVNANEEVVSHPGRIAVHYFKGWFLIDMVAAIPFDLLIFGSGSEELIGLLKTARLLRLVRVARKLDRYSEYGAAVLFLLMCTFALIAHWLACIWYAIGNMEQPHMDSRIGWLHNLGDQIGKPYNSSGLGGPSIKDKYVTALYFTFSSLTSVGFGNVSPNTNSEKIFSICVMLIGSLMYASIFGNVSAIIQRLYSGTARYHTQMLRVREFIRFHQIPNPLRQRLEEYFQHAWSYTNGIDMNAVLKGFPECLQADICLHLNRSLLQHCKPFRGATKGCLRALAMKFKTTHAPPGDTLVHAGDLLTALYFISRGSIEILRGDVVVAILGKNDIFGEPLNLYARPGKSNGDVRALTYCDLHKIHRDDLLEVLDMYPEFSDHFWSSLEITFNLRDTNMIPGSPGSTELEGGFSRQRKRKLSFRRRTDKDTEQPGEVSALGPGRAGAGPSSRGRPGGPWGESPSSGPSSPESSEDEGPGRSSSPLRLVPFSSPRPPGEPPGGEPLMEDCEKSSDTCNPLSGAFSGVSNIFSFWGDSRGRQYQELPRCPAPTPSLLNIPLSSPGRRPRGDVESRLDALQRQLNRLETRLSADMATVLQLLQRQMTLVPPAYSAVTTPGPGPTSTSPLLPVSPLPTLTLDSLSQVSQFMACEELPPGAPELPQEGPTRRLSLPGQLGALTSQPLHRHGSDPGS
`COc1ccccc1/C=C/c1onc(C)c1S(=O)(=O)N1CCC(C(=O)NC(C)C)CC1`: the “hERG current change (%, negative = inhibition) at 10uM” value is -7.1%.

Take `CC1CCCCN1C(=O)CSc1nc2ccccc2n1CC(=O)N1CCc2ccccc21` (stereo not drawn): the “hERG current change (%, negative = inhibition) at 10uM” value is -11.7%.

As for `CCOC(=O)c1sc(-c2ccccn2)nc1C`, the “hERG current change (%, negative = inhibition) at 10uM” value worked out at 10.4%.

Consider `Fc1ccc(OCCOCCN2CCCC2)cc1`, for which the “hERG current change (%, negative = inhibition) at 10uM” value is on record as -12.6%.

With `O=C(O)/C=C/C(=O)Nc1ccc(Oc2ncnc3cc(Cl)ccc23)nc1`, the “hERG current change (%, negative = inhibition) at 10uM” value is reported as 18.4%.

With `COc1ccc(Cl)cc1S(=O)(=O)N1CCCC(C(=O)NCc2ccccn2)C1` (stereo not drawn), the “hERG current change (%, negative = inhibition) at 10uM” value is on record as -15.1%.

For `O=C(O)CCn1cnc2ccccc2c1=O`, the “hERG current change (%, negative = inhibition) at 10uM” value is 18.4%.

Turning to `O=C(Nc1ccccn1)C1CCN(S(=O)(=O)c2cccs2)CC1`, the “hERG current change (%, negative = inhibition) at 10uM” value was -2.38%.

`CC(Nc1ccccc1N1CCCCC1)C(=O)N1CCc2ccccc21` (stereo not drawn): the “hERG current change (%, negative = inhibition) at 10uM” value is on record as 2.19%.

Turning to `c1ccc(Cn2nnc(-c3ccccc3)n2)cc1`, the “hERG current change (%, negative = inhibition) at 10uM” value was -19.3%.

Consider `C/C(CC(=O)Nc1cc(C)ccn1)=N\NC(=O)C(=O)NC(C)C`, for which the “hERG current change (%, negative = inhibition) at 10uM” value is 12.5%.

`CCCCc1ccc(NC(=S)Nc2cccnc2)cc1`: the “hERG current change (%, negative = inhibition) at 10uM” value is -4.62%.

In the case of `CCOC(=O)c1c(C)[nH]c(C(=O)Cn2nnc(-c3ccccc3Cl)n2)c1C`, the “hERG current change (%, negative = inhibition) at 10uM” value is 11.2%.

Take `CCn1c(NCc2cc(Br)ccc2NS(=O)(=O)c2ccc(C)cc2)nc2ccccc21`: the “hERG current change (%, negative = inhibition) at 10uM” value is given as 10.4%.

With `Cc1ccc(C(=O)N/C(=C\c2cn(C)c3ccccc23)C(=O)NCCCN2CCOCC2)cc1`, the “hERG current change (%, negative = inhibition) at 10uM” value was 0.137%.

Regarding `Cc1cc(C(=O)OCC(=O)NC(C)C)c2ccccc2n1`, the “hERG current change (%, negative = inhibition) at 10uM” value is on record as -7.74%.

For `COc1ccc2sc(N(CCCN(C)C)C(=O)c3ccc(S(=O)(=O)N4CCCc5ccccc54)cc3)nc2c1.Cl`, the “hERG current change (%, negative = inhibition) at 10uM” value was -14.4%.

On to `CCOc1ccc(S(=O)(=O)N(C)c2ccc(OCC(=O)Nc3nc(-c4cc(OC)ccc4OC)cs3)cc2)cc1`, for which the “hERG current change (%, negative = inhibition) at 10uM” value is 5.82%.

As to `CCN(CC)CCCN(C(=O)Cn1nnc(-c2ccc(OC)c(OC)c2)n1)C(C(=O)NC(C)(C)C)c1ccc(F)cc1` (stereo not drawn), the “hERG current change (%, negative = inhibition) at 10uM” value is -74.5%.

Turning to `COc1c(Cl)cnn(-c2cccc(C)c2)c1=O`, the “hERG current change (%, negative = inhibition) at 10uM” value was determined as 17.7%.

Take `COc1ccc(OC)c(NC(=O)c2[nH]c(C)c(C(C)=O)c2C)c1`: the “hERG current change (%, negative = inhibition) at 10uM” value amounted to 8.38%.

For the molecule `Cc1cccc(NC(=O)N2CCN(Cc3ccc(Cl)cc3)CC2)c1`, the “hERG current change (%, negative = inhibition) at 10uM” value was -50.7%.

In the case of `O=C(Nc1cccc(S(=O)(=O)NC2=NCCC2)c1)C1CCCCC1`, the “hERG current change (%, negative = inhibition) at 10uM” value is 15%.

With `COc1ccc(OC)c(C2=NOC(C(=O)Nc3ccccc3SC)C2)c1` (stereo not drawn), the “hERG current change (%, negative = inhibition) at 10uM” value is given as -3.41%.

`CCCC(C(=O)NCCC(C)C)N(Cc1ccc(OC)cc1)C(=O)c1snc(C(N)=O)c1N` (stereo not drawn): the “hERG current change (%, negative = inhibition) at 10uM” value was -16.7%.

Consider `CCCc1nn2c(=O)cc(CSCC(=O)Nc3ccc(OC)cc3)nc2s1`, for which the “hERG current change (%, negative = inhibition) at 10uM” value is 0.945%.

As for `Cc1cccc(N2CCN(C(=O)CCN3C(=O)C4C5C=CC(C5)C4C3=O)CC2C)c1` (stereo not drawn), the “hERG current change (%, negative = inhibition) at 10uM” value was -18.2%.

`CCCN(C(=O)C1CC(=O)N(c2ccccc2C(C)CC)C1)C1CCS(=O)(=O)C1` (stereo not drawn): the “hERG current change (%, negative = inhibition) at 10uM” value is listed as -2.13%.

As for `O=C(c1ccccn1)N1N=C2/C(=C/c3ccc(F)cc3)CCCC2C1c1ccc(F)cc1` (stereo not drawn), the “hERG current change (%, negative = inhibition) at 10uM” value was -54.3%.

In the case of `COCCNS(=O)(=O)c1ccc(-c2ccc(S(=O)(=O)NCCOC)cc2)cc1`, the “hERG current change (%, negative = inhibition) at 10uM” value is given as -17.4%.

Consider `CCCOc1ccc(C(NC(=O)CC(C)C)NC(=O)CC(C)C)cc1OC`, for which the “hERG current change (%, negative = inhibition) at 10uM” value was found to be 9.86%.

Turning to `Cc1cccc(C)c1NC(=O)CN(C)C(=O)CCC(=O)c1ccccc1`, the “hERG current change (%, negative = inhibition) at 10uM” value is -7.93%.

In the case of `COc1ccccc1/C=C/c1onc(C)c1S(=O)(=O)N1CCC(C(=O)NC2CCCCCC2)CC1`, the “hERG current change (%, negative = inhibition) at 10uM” value turned out to be 12.5%.

With `O=C(Nc1ccc(Cl)c([N+](=O)[O-])c1)c1ccc2c(c1)OCCO2`, the “hERG current change (%, negative = inhibition) at 10uM” value is on record as 7.9%.

Regarding `COc1ccc2c(c1)c(CC(=O)Nc1cc(C)ccc1C)c(C)n2C(=O)c1ccc(Cl)cc1`, the “hERG current change (%, negative = inhibition) at 10uM” value was determined as 4.86%.

In the case of `O=C(O)c1ccccc1SCC(=O)N1c2ccccc2Sc2ccccc21`, the “hERG current change (%, negative = inhibition) at 10uM” value is listed as 10.9%.

For the molecule `CN(C(=O)c1cccc(N2C(=O)C3CC=CCC3C2=O)c1)C1CCCCC1` (stereo not drawn), the “hERG current change (%, negative = inhibition) at 10uM” value is on record as -4.95%.

Regarding `Cc1ccc(C(=O)NCc2ccc(Cl)cc2)o1`, the “hERG current change (%, negative = inhibition) at 10uM” value was -20.2%.

As to `[Br-].c1sc2[n+](c1C13CC4CC(CC(C4)C1)C3)CCS2`, the “hERG current change (%, negative = inhibition) at 10uM” value is reported as 17.7%.

For `COc1cccc(C(=O)Nc2ccc3ccccc3c2)c1`, the “hERG current change (%, negative = inhibition) at 10uM” value was 0.35%.

On to `COc1ccc(N(CC(=O)NCc2ccc(C)cc2)S(=O)(=O)c2c(C)noc2C)cc1`, for which the “hERG current change (%, negative = inhibition) at 10uM” value is on record as 12.1%.

Consider `COc1ccccc1C(=O)N/C(=C/c1ccc2c(c1)OCO2)C(=O)Nc1ccc(C(=O)O)cc1`, for which the “hERG current change (%, negative = inhibition) at 10uM” value is -2.88%.
